Source: the supplement of paper PMC3334620
Over roughly 33,000 sequences, “E-score (-0.5 to 0.5)” has its median near -0.053; the highest 2% begin near 0.37. The list shows a part of the results.

Molecular target: Hap1 (UniProt P0CE41)
Assay: PBM E-score (8-mer binding enrichment) (E-score (-0.5 to 0.5)); higher = stronger / more preferred TF binding; most listed sequences are background and not binding sites
Conditions: protein concentration: 200 nM; construct: GST-DNA-binding domain
Procedure, shortened: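 Yeast transcription factors, full-length or as DNA-binding domains, were expressed with a GST tag using PURExpress in vitro transcription/translation. At about 100-200 nM they were applied to universal all-10-mer Agilent arrays, double-stranded by primer extension on fresh or once-stripped slides. Fluorescent anti-GST detected bound protein, and masliner normalised the scans. E-scores for ungapped eight-base words, pooled with reverse complements, came from the Universal PBM Analysis Suite.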

Sequence of UniProt P0CE41 (P0CE41 whole entry): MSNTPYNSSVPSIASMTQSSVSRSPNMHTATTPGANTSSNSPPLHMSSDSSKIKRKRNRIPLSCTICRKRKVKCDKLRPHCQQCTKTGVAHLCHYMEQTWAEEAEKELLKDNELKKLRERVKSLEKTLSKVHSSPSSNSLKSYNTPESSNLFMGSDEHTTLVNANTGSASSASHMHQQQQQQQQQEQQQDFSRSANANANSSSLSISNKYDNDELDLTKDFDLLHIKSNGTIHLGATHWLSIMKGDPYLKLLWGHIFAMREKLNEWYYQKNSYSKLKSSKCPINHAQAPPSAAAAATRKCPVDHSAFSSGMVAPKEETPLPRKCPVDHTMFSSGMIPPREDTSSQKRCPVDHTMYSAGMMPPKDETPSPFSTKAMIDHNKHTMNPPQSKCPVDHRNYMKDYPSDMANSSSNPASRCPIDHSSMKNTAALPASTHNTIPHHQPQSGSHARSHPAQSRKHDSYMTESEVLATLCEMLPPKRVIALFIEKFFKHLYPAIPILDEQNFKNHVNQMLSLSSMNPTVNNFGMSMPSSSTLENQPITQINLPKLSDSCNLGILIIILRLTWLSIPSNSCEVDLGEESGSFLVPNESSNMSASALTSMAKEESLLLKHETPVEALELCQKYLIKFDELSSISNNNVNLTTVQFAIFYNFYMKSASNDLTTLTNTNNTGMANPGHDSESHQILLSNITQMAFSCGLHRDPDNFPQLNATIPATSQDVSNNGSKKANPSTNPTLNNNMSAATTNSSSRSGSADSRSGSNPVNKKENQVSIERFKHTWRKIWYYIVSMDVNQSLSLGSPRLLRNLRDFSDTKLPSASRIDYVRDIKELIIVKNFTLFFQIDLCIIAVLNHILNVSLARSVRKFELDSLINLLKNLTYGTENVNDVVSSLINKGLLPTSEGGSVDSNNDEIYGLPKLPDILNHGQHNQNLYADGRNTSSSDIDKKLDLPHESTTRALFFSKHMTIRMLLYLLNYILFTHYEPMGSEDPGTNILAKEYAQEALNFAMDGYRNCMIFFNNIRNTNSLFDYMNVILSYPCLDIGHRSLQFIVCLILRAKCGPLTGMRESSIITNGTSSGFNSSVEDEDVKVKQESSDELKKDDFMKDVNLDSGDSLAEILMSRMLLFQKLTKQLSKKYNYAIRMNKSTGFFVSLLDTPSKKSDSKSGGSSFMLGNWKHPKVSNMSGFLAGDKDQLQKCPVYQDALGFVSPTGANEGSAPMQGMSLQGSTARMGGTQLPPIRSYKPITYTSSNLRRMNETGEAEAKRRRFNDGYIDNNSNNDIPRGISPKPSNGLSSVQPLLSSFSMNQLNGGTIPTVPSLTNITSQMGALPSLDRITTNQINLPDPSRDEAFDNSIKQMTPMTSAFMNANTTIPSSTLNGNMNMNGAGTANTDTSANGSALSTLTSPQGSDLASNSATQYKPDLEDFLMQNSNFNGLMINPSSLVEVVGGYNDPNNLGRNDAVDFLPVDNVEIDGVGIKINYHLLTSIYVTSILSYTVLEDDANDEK

Row | Sequence | PBM E-score
1 | ACTTTCTC | 0.0761
2 | CGTAAATA | 0.0779
3 | ATTTTCCG | 0.413
4 | ATTCGTTA | -0.0198
5 | AATCTTGA | -0.202
6 | AATGCATG | -0.0416
7 | CGGACTGC | 0.182
8 | ATTGAGCG | -0.00769
9 | AGCGCCCG | 0.288
10 | ACACCGTC | 0.169
11 | CTAGTAGA | -0.0309
12 | CACGGCCC | 0.00734
13 | CTTGGGAA | -0.138
14 | AATAGAAC | 0.00613
15 | CAGTTGAC | -0.115
16 | CCGCGCCA | 0.128
17 | GCGTTGAA | 0.0409
18 | GATGTCCC | 0.0832
19 | ATTTTCGA | -0.0541
20 | GCCTTAGC | -0.103
21 | GTGGTCTA | -0.121
22 | AACTAGAA | -0.192
23 | GTCAGGAC | -0.211
24 | CCTAACCC | 0.0154
25 | ACGATGCT | -0.185

Row | Sequence | PBM E-score
26 | CTTCAACC | -0.134
27 | GCAGGCCC | -0.138
28 | ATATGGAC | -0.0394
29 | CCCATTCC | -0.0938
30 | AAACTCCC | 0.189
31 | AAGATTAG | 0.0226
32 | TGAACTCA | -0.2
33 | GCCCTGAA | 0.0376
34 | AATCGCTA | -0.125
35 | CCTAAAGC | -0.0947
36 | ACCCAACG | -0.0503
37 | ATCCATAC | -0.0502
38 | GGGAGTAC | -0.0432
39 | ATGAAATA | -0.0556
40 | GGGTAGAA | -0.0506
41 | ATACCCTC | 0.0941
42 | CCGCATTA | 0.295
43 | ATCGAGTA | -0.191
44 | AGTTATGA | -0.135
45 | TCCACTCA | -0.132
46 | CTTTGTGC | -0.158
47 | CGGTCGAC | 0.316
48 | GTGTGCGA | -0.0613
49 | GTTGAGGA | -0.122
50 | AAAATAAA | -0.0729

Row | Sequence | PBM E-score
51 | ATTCAAAA | -0.141
52 | TGATGCCA | -0.26
53 | CGGTTGTA | 0.245
54 | CGGCGAAC | 0.295
55 | AGAGTGAT | -0.162
56 | CTTTAACA | 0.0756
57 | GTTAATTA | 0.133
58 | ATGTTCTC | -0.0906
59 | CTACTTTC | 0.00229
60 | AGCCGGGA | 0.231
61 | ACGGTTCT | -0.0996
62 | ATGTCAGC | 0.0299
63 | CGCGGCGA | 0.299
64 | AACGGACG | 0.305
65 | TCTGAACA | -0.182
66 | ATGGTCTA | -0.234
67 | CCAATAGG | -0.276
68 | CTATTAGA | -0.147
69 | GAAACGTC | -0.0511
70 | ACTAGTCA | -0.241
71 | CTCGCATA | -0.145
72 | AAGGGTTG | -0.189
73 | AAATATCA | -0.0874
74 | GTGCCAAA | -0.14
75 | CCCGATAC | 0.432

Row | Sequence | PBM E-score
76 | CCGGCCCA | 0.231
77 | CTACGAAC | -0.165
78 | AAGTTACC | 0.134
79 | ATACAGAT | -0.249
80 | ATCCCCTC | -0.16
81 | CGTACGAA | 0.0545
82 | CTTGTTAA | 0.0389
83 | AACTGCCT | -0.0937
84 | AAACTGTC | -0.267
85 | CGGGGTGC | 0.21
86 | CCTGCTTA | -0.175
87 | GAGATGTA | 0.0156
88 | CTGCTGTA | -0.0401
89 | GAAGAAGA | -0.16
90 | AAACTGCT | -0.214
91 | AAGCTCCG | 0.411
92 | AGCGAAGA | -0.0555
93 | AAACACAG | -0.0167
94 | CCCGTTAC | 0.253
95 | TCGTCAAA | -0.0953
96 | CTACGGTA | 0.0838
97 | ACGAACTA | -0.131
98 | CTCTTCAA | -0.0246
99 | AAACTGAC | 0.0832
100 | GATTTTCC | 0.187

Row | Sequence | PBM E-score
101 | TCGGTCCA | 0.278
102 | ATGGCGAC | -0.0373
103 | GTACTGTA | -0.119
104 | ACTAATAG | 0.0473
105 | GTAGGCAC | -0.0328
106 | CTACACAG | -0.32
107 | AACGATTC | 0.118
108 | ACTTTCGG | 0.303
109 | CAAGTCGG | 0.151
110 | AATTTGGA | -0.278
111 | CAAAGTAA | -0.00429
112 | ACTTCAAA | -0.0283
113 | ACCCTTCG | 0.0839
114 | ACCAATGC | 0.129
115 | CCATCCGG | 0.254
116 | CGATATAA | 0.308
117 | AGAATTGG | -0.0217
118 | CCGGAAAA | 0.432
119 | GTGACTCA | -0.194
120 | ACCACCTG | 0.0143
121 | GCAGTCAC | -0.231
122 | CAAACCGC | 0.184
123 | ACGCGCAA | 0.207
124 | CGATGCCA | -0.206
125 | CACTCATA | -0.299

Row | Sequence | PBM E-score
126 | AATTGTTG | -0.295
127 | GATAAAGA | 0.0742
128 | ACAGATTG | -0.0719
129 | AAGGGCTC | -0.311
130 | AGCATTTG | 0.0779
131 | AAAGAAGG | -0.166
132 | GCGAAAGC | 0.0298
133 | AGTACAGG | 0.0392
134 | ATAATGTC | 0.205
135 | CCGTAACA | 0.151
136 | CGGCTGGC | 0.0597
137 | ACTTCCAA | -0.157
138 | ATGCACAT | -0.225
139 | ATGTAAGA | -0.0436
140 | ATTTGTCA | -0.162
141 | ACACGACG | -0.203
142 | AATCAAGT | -0.13
143 | AACTATGT | -0.184
144 | ACTAGAAT | -0.167
145 | CCGGGGAG | 0.314
146 | ACCAGGGA | -0.302
147 | CGAAAAAG | 0.151
148 | ACGCCCGA | 0.371
149 | ACTTCCCA | -0.221
150 | AAAATTTA | -0.0757

Row | Sequence | PBM E-score
151 | GCATCAAC | -0.0399
152 | CCTGTAAG | -0.333
153 | CGACCGGA | 0.412
154 | GTGGAAGA | -0.0918
155 | TATTGAGA | -0.006
156 | CCTTTAAG | -0.0679
157 | ACCGGCGG | 0.418
158 | CTAGGTGC | -0.121
159 | CGGCCGAC | 0.415
160 | ACAGAGAA | -0.16
161 | ACTGGCGG | 0.0743
162 | GTAAGTCA | -0.219
163 | ACCGAGTG | 0.133
164 | TCATAAGA | -0.0459
165 | CGCGGTAC | 0.2
166 | TACATCCA | -0.221
167 | AGGCTGCG | -0.115
168 | CCTGGGCC | -0.0121
169 | TAATTTCA | -0.0367
170 | CCAGTAAA | -0.09
171 | AGTATTCA | -0.192
172 | TCATCCCA | -0.291
173 | GACTCTAA | -0.0481
174 | CCGGATAG | 0.316
175 | ACCAAAAG | -0.165

Row | Sequence | PBM E-score
176 | AATGCAGC | -0.0955
177 | GGGGCATA | 0.0612
178 | AGTCTTTA | -0.223
179 | AGTATCAT | -0.0146
180 | CTCGCGAC | 0.0984
181 | CCAAGACA | -0.0655
182 | TACGGGCA | 0.0438
183 | ACGCACAT | -0.0567
184 | ATAGATAG | -0.201
185 | ATTCCTCA | -0.162
186 | ACACGTCA | -0.156
187 | CCGAAACA | 0.288
188 | CTTGACTA | -0.169
189 | AGCTGGAA | -0.227
190 | CCAAGCAG | -0.155
191 | AGGCGTGG | -0.301
192 | AACCAGTC | -0.071
193 | AATCTGTG | -0.0888
194 | AACTAGCG | 0.15
195 | CTCATGAC | 0.0168
196 | AGACGGCG | -0.015
197 | CTAACCCC | 0.235
198 | GAGGGATA | -0.105
199 | ATTACGTG | -0.191
200 | CGCTTACG | -0.0315

Row | Sequence | PBM E-score
201 | GGATCTAA | 0.293
202 | ACACTCCA | -0.162
203 | CTATCAGC | -0.119
204 | CCATTGAA | -0.141
205 | GGATCGTA | -0.0215
206 | GTCGGCTA | 0.163
207 | ACAAAGCT | -0.0144
208 | AATAGTAG | -0.0382
209 | AAAGTACG | -0.0494
210 | GTCATACA | -0.166
211 | GTTTGATA | -0.0186
212 | CGCAATTA | 0.311
213 | ATTATACC | 0.258
214 | TAGCCAAA | 0.0352
215 | ATATTGCA | -0.0459
216 | TGACCCAA | -0.231
217 | CTCTAGTC | -0.137
218 | GCCTTCAA | -0.237
219 | ATATCGCC | 0.414
